The values below come from the supplement of paper PMC11383711.

Where a chain is given by its changes, count along the chain named. The list shows a part of the results. Binding of human antibodies (heavy:light variable regions, tested as scFv in one mRNA-display pool) to influenza hemagglutinin, with or without the stem antibody CR9114 bound first. Score = (mean enrichment − median) / interquartile range of that screen; higher = more enriched, 0 = typical non-binder. Active = above the paper's cut-off per screen: stems 28; unblocked H1 Solomon Islands 5, H1 Michigan 3, H3 5, H5 19, H7 2.85, both B 5; blocked 9, 7, H5 10, H7 10, B Phuket 10, B Lee 11.5. Scores are scaled within each screen and are no affinities; replicates correlate at about 0.6 to 0.9, and antibodies rare in the pool are noisier.

B1: K77-2B03 (protein)
chain 1: EVQLVESGGIVVRPGGSLTLSCTTSGFTFDAHAMHWVRQAPGKGLEWVSLIGWDSAVTFYADSVRGRFNISRDNSKNSLYLQINSLRLEDTALYYCVRDDGSGSYGYHHFDLDVWGRGTMVIVSS
chain 2: DVVMTQSPLSLPVTLGQPASISCRSTQSLVFSDGDTYLNWFQQRPGQSPRRLIYKVSNRDSGVPDRFSGSGSGTDFTLRISRVEADDVGVYYCMQGTHWPLTFGGGTKVEI
B2: C6-2-2C06 (protein)
chain 1: VQLLESGGGLVQPGGSLRLSCAASGFTFSFSAMSWIRQTPAKGLEWVAAISGNGGATFYTDSVKGRFTISRDNSKSTVHLQMHSLRAEDTAVYYCAKKSPNDYDHYWGQGALVTVSS
chain 2: DIQMTQSPSTLSSSVGDSVTITCRASQSISTYLAWYQQKPGKAPKVLIYQASILESGVPSRFSGSGSGTEFTLTISSLQPDDFATYYCQQYNSYSGTFGQGTKVEIK
B3: C2-3-F04 (protein)
chain 1: VQLVESGGGVVQPGRSLRLSCAASGFSFRDFSMHWVRQAPGMGLEWVTLISYDGTNTFYADSVKGRFTISRDNSKNTLFLQLNSLRTEDTAVYYCARDYRHGLIDFWGQGTLVTVSS
chain 2: DVVMTQSPLSLPVPLGQPASISCRSSDSLVSVDGNTYLNWFQQRPGQSPRRLIYQVSNRDSGVPERFSGSGSDTDFTLKISRVEAEDVGVYYCMQGTYWPPITFGQGTRLEIK
B4: K77-2A10 (protein)
chain 1: EVQLVESGGGLVQPGGSLRLSCEASGFIFSTYSMNWVRQAPGKGLEWVSYISDSSRTIYYADSVKGRFTISRDNTKNSLFLQMNNLRAEDTALYYCARDPDTPFIRAFDSWGQGTLVTVSS
chain 2: DIQLTQSPSFLSASVGDRVTITCRASQDISSYVAWYQQKPGKAPKLLIYATSTLQSGVPSRFSGGGSGTEFTLTIRGLQPEDFATYYCQQLNIYPPVTFGQGTKLEIK
B5: 029-09-3A02 (protein)
chain 1: VQLVQSGAEVKKPGASVKVSCKASGYIFTGYYMEWVRQAPGQGLEWMGWINPNTGVTKYAQKFQGRVTMTRDTSLSTAYMELINLRSDDTAIYYCAKDRAWLVYDDGSDVWGQGTMVTVSS
chain 2: SYELTQPPSVSVSPGQTAIITCSGDILGDTYACWYQQKPGQSPVLVIYHDFKRPSGIPERFSGSNSGKTATLTITGTQAMDEADYFCQTWDGGALFGGGTKLTVL
B6: W85-3C05 (protein)
chain 1: EVQLVESGGGLVQPGGSLRLSCAASGFTVSSNYLSWVRQAPGKGLEWVSVIYGGGNTYYADSVKGRFTISRHNSKNTLYLQMNNLRAEDTAVYYCASHVLRFLEEGFDMWGQGTMVTVSS
chain 2: DIQMTQSPSSLSASVGDRVTITCRASQSISSYLNWYQQEPGKVPKLLIYSASSLHSGVPSRFSGSGSGTDFTLTISSLQPEDFATYYCQQTYSTSLTLGGGTKVEIK
B7: 01.d.04 (protein)
chain 1: EVQLVESGGGVVQPGGSLRLSCAASGFTFSDYGIHWVRQAPAKGLEWVTFIRHDGNSEYFVDSVKGRFTVSRDNSKNTVYLQVNRLRPDDTAIYYCAKDAVWSGYYPTHSYFEYWGQGTLVPVSS
chain 2: DIQMTQVPVSLSASVGDRVTITCRASQGISNYLNWYQQKPGKAPKLLIYAISNLFSGVPSRFSGSESGTDFTLTISSLQPEDFATYYCQQTYTTPQTFGQGTKVEIK
B8: 042-10-2D01 (protein)
chain 1: QVQLQESGPRVVKPSETLSLTCSVSGESISSFYWSWIRQPAGKGLEWIGRIDSSGSTNYNPSLKSRVSMSLDTSKKQVSLKLTSVTAADTAVYYCVRDWWEVQYGNAFDMWGQGTMVTVSS
chain 2: DIQMTQSPSSLSASVGDRVILTCRASQSIGTYLNWYQQKPGKAPKFLIYVASNLQSGVPSRFSGSGSGTDFTLTISSLQPEDFATYFCQQSHSIPWTFGQGTKVEIK
B9: K77-1D04 (protein)
chain 1: EVQLVESGGGVVQPGGSLRLSCGASGFTFSDYGMHWVRQAPGKGLEWVTYIRYDGSNEFYADSVKGRFTVSRDNSKNTLYLEMHSLRPEDTAVYFCANSALGYCSGENCPKFDFWGQGTLVTVSS
chain 2: QSALTQPASVSGSPGQSITISCTGTSFDVGGYNYVSWYQQHPGKAPKLIIYDVSERPSGISNRFSASKSGITASLTISGLQAEDEADYYCSSYTSSGTHWLFGGGTKLTVL
B10: 16.ND.92 (protein)
chain 1: EVQLVESGGGLVQPGGSLRLSCEASGFTLSSYWMHWVRQDPGKGLVWVAVINSDGSSTDYADFVKGRFTISRDNAKNTVYLQMNSLRAEDTAVYYCARAPQGTVFGVVIIGADGFDIWGQGTMVTVSS
chain 2: DIQMTHIPVSLSASVGDRVTITCRASQSISSWLAWYQQKPGKAPKLLIYKASTLESGVPSRFSGSGSGTDFTLTINSLQPDDFATYYCQHYNTYSRAWTFGQGTKVEVK
B11: C6-C01 (protein)
chain 1: VQLVESGGGVVQPGKSLRLSCTASGFTFSSYAMHWVRQAPGKGLEWVAVVAYDGSNRYYVDSVKGRFTISRDNSKNTLYLQMNNIRPEDTAVYYCARVASMILVDIKYYFDYWGQGTLVTVSS
chain 2: EIVMTQSPATLSVSPGERATLSCRASQSVRSNLAWYQQKPGQAPRLLIYGASTRATGIPARFSGSGSGTEFTLTISSLQSDDFAVYHCQQYNEWPRTFGQGTKVEIK
B12: C1-2B06 (protein)
chain 1: VQLQESGPGLVKPSETLSLTCSVSGDSISETIYYWGWIRQSQGKGLEWIGNVYYDASTYYNPSLKSRVTMSIDTSKNQFSLKVSSVTAADTAVYYCARVPDGYKYYYGMDVWGQGTTVTVSS
chain 2: EIVMTQSPATLSVSPGERVTLSCRASQGVSSKLAWYQQKRGQAPRLLIYGASTRATGIPARFSGSGSGTEFTLTISSLQSEDFAIYYCQQYYNWTPITFGQGTRLEIK
B13: K77-1B02 (protein)
chain 1: EVQLVESGGGLERPGGSLRLSCAASGFTFDDHGMSWVRQAPGKGLEWVSGINWNGGSTGYADSVKGRFTISRDNAKSSLFLQMNSLRAEDTALYYCARDSQQGIAAAGIFHYWGQGTLVTVSS
chain 2: DIQMTQSPSTLSASVGDRVTITCRASQSINRWLAWYQQKPGKAPKLLIYRASSLESGVPSRFSGSGSGTEFTLTISSLQPDDFATYFCQHYEGYSWTFGQGTKVDIK
B14: 042-10-2B05 (protein)
chain 1: QVQLVESGGGVVQTGRSLRLSCAASGFTFRNYAMHWVRQAPGKGLEWVAVILYDGNNEYYADFAKGRFTISRDNSKNIVYLQLNSLRPEDSAIYFCAKDGEYSGHESEVHWGQGTLVTVSS
chain 2: B13 chain 2 with I29V, N30F, R31S, L46V, R50K, F87Y, H90Q, E92Q, G93S, D105E
B15: 014-10-1G06 (protein)
chain 1: QVQLVESGGGVVQPGRSLRLSCAASGFTFNSYAMHWVRQAPGKGLEWVAVISYDETNKHFSDSVKGRFTISRDNSKNTLLLQMDSLRIEDTAVYYCAREASFAFFDIWGQGTMVTVSS
chain 2: EIVMTQSPATLSVSPGERATLSCRASQSLTINLAWYQQRPGQAPRLLIYGASTRATGIPARFSGSGSGTEFTLTISSLQSEDFAVYYCQQYHNWPPLTFGGGTKVEIK
B16: C1-2E01 (protein)
chain 1: VQLVESGGGGVRPGRSLRLSCAASGFNFEHYGMIWVRQVPGKGLEWVSAITWNGGDTYYVDSVRGRFTISRDNAKRSLFLQMNSLRVEDTAFYYCAREMRDPYDAFDLWGQGTMVTVSS
chain 2: DIQMTQSPSSLSASVGDRVTITCRASHNIGSYLNWYQQKPGKAPQLLIYASSILQTGVPSRFSGSGSGTDYTLTISGLQRDDFATYFCQQSSTNPKTFGQGTRLEIK
B17: K77-2A05 (protein)
chain 1: EVQLVESGGGVVQPGRSLRLSCAASGFTFASYGLHWVRQAPGKGLEWVAHVSSEGSEKYYADSVKGRFTISRDNPKNKLYLQMTSLRAEDTAVYYCARDRSGYFQVDYWGQGTLVTVSS
chain 2: QSALTQPASVSGSPGQSITISCTGATSDVGNYNLVSWYQHHPGKVPKLILYEVTERPSGVSNRFSGSKSGNTASLTISGLQAEDEADYYCCSYATGGIFLFGTGTKVTVL
B18: K77-2E05 (protein)
chain 1: QVQLVQSGAEVKRPGASVKVSCKASGYTFTSHYVTWVRQAPGQGLEWMGPIIPSAGSISYAQKFQGRVVMTRDTSTSTVYMELSSLRSEDTAVYYCARVGVQVERELRYYGMDVWGQGTTVTVSS
chain 2: EIVLTQSPGTLSLSPGERATLSCRASQSVSSSYLAWYQQKPGQAPRLLIYGASSRATGVPDRFSGSGSGTDFILTISRLEPEDFAVYYCQQYGFSGTTFGQGTRLEI
B19: W85-1C11 (protein)
chain 1: EVQLVESGGGLVQPGGSLRLSCAASGFILSPYWMHWVRQAPGKGLVWVSRINSDGSNRNYADSVKGRFTISRDNAKNTLYLQMNSLRVEDTAVYYCARQGYYYDSSGYQDWFDPWGQGTLVTVSS
chain 2: SYELTQPPSVSVSPGQTARITCSGDALPKKYAYWYQQKSGQAPVLVIYEDTKRPSGIPQRFSGSSSGTMATLTISGAQVEDEADYYCYSTDSSGNHRVFVGGT

The target in the first experiment is H1 HA stem construct (mini-HA #4900). The experiment is described as follows: mRNA display binding score; higher = more enriched on the antigen. Conditions: antigen blocked with: nothing. The protocol:
(§1)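 A pool of natively paired antibodies, displayed as scFv on mRNA, was selected once on antigen-coated beads and sequenced before and after; two replicates.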
B1: the “mRNA display binding score” value is inactive: 0.107.

For the molecule B2, the “mRNA display binding score” value is inactive: -1.24.

Consider B3, for which the “mRNA display binding score” value is inactive: -0.513.

Turning to B4, the “mRNA display binding score” value was inactive: -0.433.

Consider B5, for which the “mRNA display binding score” value was inactive: 0.54.

On to B6, for which the “mRNA display binding score” value was inactive: -0.798.

Turning to B7, the “mRNA display binding score” value was inactive: 0.788.

With B8, the “mRNA display binding score” value is inactive: -0.554.

In the case of B9, the “mRNA display binding score” value is inactive: -1.18.

For B10, the “mRNA display binding score” value was active: 57.8.

For the molecule B11, the “mRNA display binding score” value is inactive: 0.817.

Consider B12, for which the “mRNA display binding score” value was inactive: -0.627.

Consider B13, for which the “mRNA display binding score” value is inactive: 0.33.

Consider B14, for which the “mRNA display binding score” value was inactive: -0.18.

B15: the “mRNA display binding score” value is inactive: 0.144.

As to B16, the “mRNA display binding score” value was inactive: 1.55.

Regarding B17, the “mRNA display binding score” value is inactive: -0.946.

For the molecule B18, the “mRNA display binding score” value is inactive: -0.298.

Consider B19, for which the “mRNA display binding score” value was inactive: 0.0292.

For the next experiment, the target named is H3 HA stem construct (H3ssF). Described as above. Particulars: antigen blocked with: nothing. The protocol: as §1
Consider B1, for which the “mRNA display binding score” value is inactive: 0.00388.

Turning to B2, the “mRNA display binding score” value was inactive: 2.91.

Consider B3, for which the “mRNA display binding score” value was inactive: -0.434.

As for B4, the “mRNA display binding score” value was inactive: -0.186.

For B5, the “mRNA display binding score” value is inactive: -0.127.

Regarding B6, the “mRNA display binding score” value was inactive: -0.016.

B7: the “mRNA display binding score” value is inactive: 0.191.

As to B8, the “mRNA display binding score” value was inactive: 0.417.

Take B9: the “mRNA display binding score” value was inactive: 0.612.

For B10, the “mRNA display binding score” value was inactive: 0.196.

As to B11, the “mRNA display binding score” value is inactive: -0.215.

For the molecule B12, the “mRNA display binding score” value was inactive: -0.417.

With B13, the “mRNA display binding score” value was inactive: -0.0773.

On to B14, for which the “mRNA display binding score” value is inactive: -0.229.

Take B15: the “mRNA display binding score” value is inactive: 0.295.

For B16, the “mRNA display binding score” value is inactive: -0.431.

For the molecule B17, the “mRNA display binding score” value is inactive: -0.742.

Regarding B18, the “mRNA display binding score” value was inactive: -0.111.

On to B19, for which the “mRNA display binding score” value was inactive: 0.268.
